Results taken from the antibiotic and cytotoxicity screens of Wong et al. (2023).
Some of the results follow.

Assays:
[1] = test system: HSkMC (human skeletal muscle cells); experiment: cytotoxicity call (relative viability < 0.9); details: 10 µM
[2] = test system: HepG2; experiment: cytotoxicity call (relative viability < 0.9); details: 10 µM
[3] = test system: S. aureus RN4220; experiment: growth inhibition call (relative growth <= 0.2); details: 50 µM

Row | Compound | cytotoxicity call [1] | cytotoxicity call [2] | growth inhibition call [3]
1 | C[C@@H]1CCCCO[C@@H](CN(C)C(=O)Nc2ccc(F)cc2)[C@@H](C)CN([C@@H](C)CO)C(=O)c2cc(NC(=O)Nc3cccc4ccccc34)ccc2O1 | inactive | inactive | inactive
2 | CC=C1C2C=C(C)CC1(N)c1ccc(=O)[nH]c1C2 (stereo unspecified) | inactive | inactive | inactive
3 | C[C@H](CO)N1C[C@H](C)[C@@H](CN(C)S(=O)(=O)c2ccc(F)cc2)OCCCC[C@H](C)Oc2ccc(NC(=O)NC3CCCCC3)cc2C1=O | inactive | inactive | inactive
4 | COC(=O)C1=CO[C@@H](O[C@@H]2O[C@H](CO)[C@@H](O)[C@H](O)[C@H]2O)[C@@H]2[C@@H](C)[C@@H](O)[C@@H](OC(=O)/C=C/c3ccc(O)c(O)c3)[C@H]12 | inactive | inactive | inactive
5 | C[C@@H]1CN([C@H](C)CO)C(=O)c2cc(C#CC3CC3)cnc2O[C@@H]1CN(C)S(=O)(=O)c1cccc(F)c1 | inactive | inactive | inactive
6 | COc1ccc(NC(=O)N(C)C[C@H]2OCCCC[C@H](C)Oc3ccc(NC(=O)c4ccccc4)cc3C(=O)N([C@@H](C)CO)C[C@H]2C)cc1 | inactive | inactive | inactive
7 | C[C@@H]1CN([C@H](C)CO)C(=O)Cc2cc(NC(=O)Nc3ccc4c(c3)OCO4)ccc2O[C@@H]1CN(C)Cc1ccc(-c2ccccc2)cc1 | active | active | inactive
8 | C[N+](C)(C)CCCC[C@@H]1NC(=O)[C@@H]2C[C@H](C(=O)NCCCCCNC(=O)CS)[C@H](c3ccc(O)cc3)N2C1=O | inactive | inactive | inactive
9 | C[C@@H]1CN([C@H](C)CO)C(=O)c2cc(NC(=O)C3CCCCC3)ccc2O[C@@H](C)CCCCO[C@H]1CN(C)C(=O)Nc1ccc2c(c1)OCO2 | inactive | inactive | inactive
10 | C[C@]12NC(=O)N[C@H](c3ccccc3O1)[C@H]2CO | inactive | inactive | inactive
11 | Cc1noc(C)c1S(=O)(=O)Nc1ccc2c(c1)CC(=O)N([C@@H](C)CO)C[C@@H](C)[C@@H](CN(C)S(=O)(=O)c1ccccc1)O2 | inactive | inactive | inactive
12 | O=C(C[C@@H]1C[C@H]2c3cc(NS(=O)(=O)c4ccc(F)cc4)ccc3O[C@H]2[C@H](CO)O1)N1CCOCC1 | inactive | inactive | inactive
13 | Cc1ccc(S(=O)(=O)Nc2ccc3c(c2)C(=O)N([C@@H](C)CO)C[C@@H](C)[C@H](CN(C)S(=O)(=O)c2ccc(C)cc2)OCCCC[C@H](C)O3)cc1 | inactive | inactive | inactive
14 | Cc1noc(C)c1NC(=O)N(C)C[C@@H]1OCCCC[C@@H](C)Oc2ccc(NS(=O)(=O)c3ccccc3)cc2C(=O)N([C@H](C)CO)C[C@H]1C | inactive | inactive | inactive
15 | N[C@H](CSCSC[C@H](N)C(=O)O)C(=O)O | inactive | inactive | inactive
16 | O=C(C[C@@H]1C=C[C@@H](NC(=O)c2cccnc2)[C@@H](CO)O1)NCc1ccncn1 | inactive | inactive | inactive
17 | CCCC(=O)Nc1ccc2c(c1)OC[C@@H](C)N(Cc1ccc(-c3ccccn3)cc1)C[C@@H](C)[C@H](OC)CN(C)C2=O | inactive | inactive | inactive
18 | C[C@@H]1CN([C@H](C)CO)C(=O)c2cc(NC(=O)Cn3cnnn3)ccc2O[C@H]1CN(C)C(=O)Nc1ccc2c(c1)OCO2 | inactive | inactive | inactive
19 | NC(=O)C1CCNCC1 | inactive | inactive | inactive
20 | O=c1nc[nH]c2nn(-c3ccccc3)nc12 | inactive | inactive | inactive
21 | C[C@H](CO)N1C[C@H](C)[C@H](CN(C)CC2CC2)Oc2cc(C#Cc3ccccc3F)ccc2S1(=O)=O | inactive | active | inactive
22 | CN(C)CC(=O)N1[C@@H](CO)[C@@H](c2ccc(C3=CCCC3)cc2)C12CN(S(=O)(=O)Cc1ccccc1)C2 | inactive | inactive | inactive
23 | C[C@@H]1CN([C@H](C)CO)C(=O)c2cc(NC(=O)CCC(F)(F)F)ccc2O[C@H]1CN(C)Cc1ccc(Cl)c(Cl)c1 | inactive | inactive | inactive
24 | O=C(C[C@H]1C[C@H]2c3cc(NS(=O)(=O)c4ccc(F)cc4)ccc3O[C@H]2[C@H](CO)O1)N1CCCCC1 | inactive | inactive | inactive
25 | COC(=O)c1c(C#N)c(N)nc2c1CCC2 | inactive | inactive | inactive
26 | O=C(C[C@H]1CC[C@H]2[C@@H](COC[C@H](O)CN2C(=O)c2cnccn2)O1)N1CCN(c2ccccc2)CC1 | inactive | inactive | inactive

Row | Compound | cytotoxicity call [1] | cytotoxicity call [2] | growth inhibition call [3]
27 | C[C@@H]1CCCCO[C@H](CN(C)Cc2ccc3c(c2)OCO3)[C@H](C)CN([C@@H](C)CO)C(=O)c2cc(NC(=O)Nc3ccc(F)cc3)ccc2O1 | inactive | active | inactive
28 | C[C@H]1CN([C@@H](C)CO)C(=O)c2cccc(NC(=O)Nc3ccc(C(F)(F)F)cc3)c2O[C@H]1CN(C)C(=O)Nc1ccc(C(F)(F)F)cc1 | inactive | inactive | inactive
29 | C[C@H](CO)N1C[C@H](C)[C@@H](CN(C)C(=O)c2ccccc2)OCCCC[C@H](C)Oc2ccc(NC(=O)Nc3cccc4ccccc34)cc2C1=O | inactive | inactive | inactive
30 | CC(=O)N(C)C[C@H]1Oc2ncc(C#CC(C)(C)O)cc2C(=O)N([C@@H](C)CO)C[C@@H]1C | inactive | inactive | inactive
31 | C[C@H]1CN([C@@H](C)CO)C(=O)c2cc(-c3ccc(C(=O)N(C)C)cc3)cnc2O[C@H]1CN(C)C(=O)c1ccncc1 | inactive | inactive | inactive
32 | CCOC(=O)c1ncn2c1CN(C)C(=O)c1cc(F)ccc1-2 | inactive | inactive | inactive
33 | C[C@H](CO)N1C[C@H](C)[C@H](CN(C)S(=O)(=O)c2ccc(-c3ccccc3)cc2)OCc2cn(nn2)CCCC1=O | inactive | inactive | inactive
34 | C/C=C/c1ccc2c(c1)O[C@@H](CN(C)S(=O)(=O)c1ccc(C)cc1)[C@@H](C)CN([C@H](C)CO)S2(=O)=O | inactive | inactive | inactive
35 | CCCNC(=O)NS(=O)(=O)c1ccc(Cl)cc1 | inactive | inactive | inactive
36 | C[C@@H]1CN([C@@H](C)CO)C(=O)CCCn2nncc2CO[C@H]1CN(C)S(=O)(=O)c1ccc(Oc2ccccc2)cc1 | inactive | inactive | inactive
37 | COc1ccc(C#Cc2ccc3c(c2)[C@]2(C(=O)N3)[C@H](c3ccccc3OCCO)N3[C@H](c4ccccc4)[C@H](c4ccccc4)OC(=O)[C@H]3[C@@H]2C(=O)N2CCc3cc(OC)c(OC)cc3C2)cc1 | inactive | inactive | inactive
38 | CCS(=O)(=O)N1C[C@]2(CN(C2)C(=O)Nc2ccc(cc2F)F)c2c(n(c3cc(ccc23)OC)C)[C@@H]1CO | inactive | inactive | inactive
39 | C[C@@H]1CN([C@H](C)CO)S(=O)(=O)c2ccc(-c3cncnc3)cc2O[C@H]1CN(C)C(=O)Cc1ccncc1 | inactive | inactive | inactive
40 | O=C1c2ccccc2[C@@]2(Cc3ccccc3N(CC(F)(F)F)C2=O)[C@H](c2ccc(CO)cc2)N1Cc1ccccc1Cl | inactive | inactive | inactive
41 | COc1ccc(S(=O)(=O)Nc2cccc3c2O[C@@H](CN(C)C(=O)NC(C)C)[C@@H](C)CN([C@@H](C)CO)C3=O)cc1 | inactive | inactive | inactive
42 | Cc1noc(C)c1S(=O)(=O)Nc1ccc2c(c1)C(=O)N([C@@H](C)CO)C[C@H](C)[C@@H](CN(C)C(=O)Nc1ccc(C(F)(F)F)cc1)OCCCC[C@@H](C)O2 | inactive | inactive | inactive
43 | COc1ccc(S(=O)(=O)Nc2ccc3c(c2)C(=O)N([C@H](C)CO)C[C@H](C)[C@@H](CN(C)C(=O)Nc2c(C)noc2C)O3)cc1 | inactive | inactive | inactive
44 | CNS(=O)(=O)c1cc(OC)ccc1OC | inactive | inactive | inactive
45 | NCCCCCCNC(=O)[C@@H]1C[C@@H]2C(=O)N3CCC[C@H]3C(=O)N2[C@@H]1c1cccc(OCCO)c1 | inactive | inactive | inactive
46 | C[C@H](CO)N1C[C@H](C)[C@H](CN(C)S(=O)(=O)c2ccccc2)OCCCC[C@H](C)Oc2ccc(NC(=O)NC3CCCCC3)cc2C1=O | inactive | active | inactive
47 | O=C(O)c1cccnc1Nc1cccc(C(F)(F)F)c1 | inactive | inactive | inactive
48 | C[C@H](CO)N1C[C@H](C)[C@H](CN(C)Cc2cccc(C(F)(F)F)c2)Oc2ncc(-c3cc4ccccc4o3)cc2C1=O | inactive | inactive | inactive
49 | NCC[C@@H](O)c1ccc(Br)cc1 | inactive | inactive | inactive
50 | C[C@H]1CN([C@@H](C)CO)C(=O)CCCn2cc(nn2)CO[C@@H]1CN(C)S(C)(=O)=O | inactive | inactive | inactive
51 | C=C[C@](C)(O)CC/C=C(\C)C(=O)O[C@@H]1[C@@H](O[C@@](C)(C=C)CC/C=C(\C)C(=O)O[C@H]2C[C@@]3(C(=O)O[C@H]4OC[C@@H](O[C@H]5O[C@@H](CO)[C@@H](O)[C@@H](O[C@H]6O[C@@H](CO)[C@@H](O[C@H]7O[C@@H](CO)[C@@H](O)[C@@H](O)[C@@H]7O)[C@@H](O)[C@@H]6O)[C@@H]5O)[C@@H](O)[C@@H]4O)[C@@H](O)C[C@@]4(C)C(=CC[C@H]5[C@@]6(C)CC[C@@H](O[C@H]7O[C@@H](CO)[C@@H](O[C@H]8O[C@@H](CO)[C@@H](O)[C@@H](O[C@H]9OC[C@@H](O)[C@@H](O)[C@@H]9O)[C@@H]8O)[C@@H](O)[C@@H]7O)C(C)(C)[C@@H]6CC[C@@]54C)[C@@H]3CC2(C)C)OC[C@@H](O)[C@H]1O | active | active | inactive
52 | C[C@H]1CN([C@@H](C)CO)C(=O)Cc2cc(NC(=O)C3CCCCC3)ccc2O[C@@H]1CN(C)C(=O)Nc1ccc(C(F)(F)F)cc1 | inactive | inactive | inactive
